# Among all 310,000 compounds or so, about 2,200 (0.71%) showed an effect of 50% or more. Effects have a minus sign here. Some of the results follow.
# Molecular target: human ether-à-go-go-related gene (hERG) potassium channel (human, UniProt Q12809)
# Assay: primary screen, population patch clamp on CHO cells stably expressing hERG
# Chain of human ether-à-go-go-related gene (hERG) potassium channel (Q12809 whole entry, looked up): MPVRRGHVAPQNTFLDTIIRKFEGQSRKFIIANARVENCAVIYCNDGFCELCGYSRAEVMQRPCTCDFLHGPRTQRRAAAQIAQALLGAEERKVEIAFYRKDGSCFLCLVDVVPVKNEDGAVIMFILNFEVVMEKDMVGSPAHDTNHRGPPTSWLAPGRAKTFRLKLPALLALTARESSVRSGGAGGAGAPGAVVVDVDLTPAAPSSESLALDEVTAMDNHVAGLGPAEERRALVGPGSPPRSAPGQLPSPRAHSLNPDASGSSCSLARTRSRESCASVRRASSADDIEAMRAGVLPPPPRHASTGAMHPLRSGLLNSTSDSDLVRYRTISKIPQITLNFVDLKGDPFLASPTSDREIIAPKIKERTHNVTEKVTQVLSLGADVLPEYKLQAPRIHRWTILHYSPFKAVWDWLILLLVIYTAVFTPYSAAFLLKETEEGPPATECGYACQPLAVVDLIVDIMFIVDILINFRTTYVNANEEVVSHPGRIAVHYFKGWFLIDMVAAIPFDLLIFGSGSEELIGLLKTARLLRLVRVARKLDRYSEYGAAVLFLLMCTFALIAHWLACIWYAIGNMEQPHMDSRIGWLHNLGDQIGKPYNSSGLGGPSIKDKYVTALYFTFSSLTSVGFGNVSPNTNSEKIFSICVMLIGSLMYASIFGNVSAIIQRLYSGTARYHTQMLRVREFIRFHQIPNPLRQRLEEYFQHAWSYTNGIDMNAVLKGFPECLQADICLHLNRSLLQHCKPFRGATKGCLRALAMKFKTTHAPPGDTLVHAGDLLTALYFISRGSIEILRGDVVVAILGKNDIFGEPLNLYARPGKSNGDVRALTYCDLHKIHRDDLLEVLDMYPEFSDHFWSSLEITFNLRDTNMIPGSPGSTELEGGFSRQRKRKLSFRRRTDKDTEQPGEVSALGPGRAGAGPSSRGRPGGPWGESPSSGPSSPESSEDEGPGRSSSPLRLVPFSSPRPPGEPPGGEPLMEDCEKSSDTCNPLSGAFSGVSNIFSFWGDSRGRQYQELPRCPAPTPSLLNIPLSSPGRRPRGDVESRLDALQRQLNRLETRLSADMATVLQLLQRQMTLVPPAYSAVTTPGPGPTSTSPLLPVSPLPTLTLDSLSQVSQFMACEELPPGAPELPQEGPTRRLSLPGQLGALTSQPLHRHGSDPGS
row,Structure (SMILES),"hERG current change (%, negative = inhibition) at 1uM [%]"
1,O=C(O)CCCN1C(=O)C2C3CC(C2C1=O)C1C(c2ccccc2)c2sc(=O)n(-c4ccccc4)c2SC31 (stereo not drawn),14.7
2,Cc1ccccc1C(=O)NC(=S)Nc1ccc(S(=O)(=O)N(C)c2ccccc2)cc1,9.49
3,O=S(=O)(Cc1ccccc1)N1CCCc2ccccc21,-1.53
4,CCNC(=S)NNC(=O)C1CCN(Cc2ccccc2)CC1,6.22
5,Cc1ccsc1C(=O)NNC(=O)C1C2C=CC(C2)C1C(=O)O (stereo not drawn),2.82
6,Cc1c(CCC(=O)NCCCn2ccnc2)c(=O)oc2c(C)c3oc4c(c3cc12)CCCC4,2.02
7,CC1CCCCC1NC(=O)COC(=O)CCC(=O)c1cccs1 (stereo not drawn),12.1
8,CCCN(CC1CC1)C(=S)Nc1ccc(C(C)=O)cc1,-0.0968
9,COc1ccccc1CCC(=O)N(CCC1=CCCCC1)c1c(N)n(Cc2ccccc2)c(=O)[nH]c1=O,13
10,COc1ccc(-c2cc(-c3ccc(OC)c(OC)c3)n[nH]2)c(O)c1,2.35
11,CO.Cc1ccc(C2=NCN(c3ccc(C(=O)O)cc3)C(=S)N2)cc1,9.74
12,CCCN(C(=O)CCNC(=O)Cn1cnc2ccccc2c1=O)c1cccc(C)c1,15.3
13,O=C(Cc1ccccc1)N1CCN(Cc2cccnc2)CC1.O=C(O)C(=O)O,9.07
14,Cc1cccc2sc(NC(=O)CSc3nc4ccccc4o3)nc12,-0.695
15,CC1(C)Oc2ccc3ccc(=O)oc3c2C[C@H]1O,9.62
16,O=C(CCn1ccnc1)Nc1ccc2ccccc2c1,8.61
17,O=C(OCC(=O)N1CCN(C(=O)c2ccco2)CC1)C1=COCCO1,29.5
18,Cc1cc(C)c2nc(/N=C(\N)NC(=O)c3ccccc3)nc(C)c2c1,0.931
19,CC(C)Cn1c(SCC#N)nc2ccccc2c1=O,11.6
20,CCC(=O)c1coc2ccc(O)cc12,5.33
21,CC(C)C(c1nnnn1C(C)(C)C)N1CCOCC1 (stereo not drawn),4.7
22,COc1ccc(Cc2nnc(NC(=O)Nc3ccc(F)cc3)s2)cc1,16

row,Structure (SMILES),"hERG current change (%, negative = inhibition) at 1uM [%]"
1,COC(=O)[C@]12OC[C@]34C([C@@H](O)[C@@H]1O)[C@]1(C)CC(=O)C(O)=C(C)[C@@H]1C[C@H]3OC(=O)[C@H](O)[C@@H]24 (stereo partly drawn),15.9
2,Cc1ccc(N2CC(NS(=O)(=O)c3cc(F)ccc3F)CC2=O)cc1C (stereo not drawn),13.6
3,COc1ccc(/C(C)=N/Nc2ccc(C(=O)O)cc2)cc1OC.O=S(=O)(O)O,11.7
4,C=CCN1C(=O)CS/C1=N\S(=O)(=O)c1ccc(Cl)cc1,9.7
5,CC(=O)Nc1ccc(NC(=O)c2ccc(COc3ccc4c(C)cc(=O)oc4c3)cc2)cc1,0.856
6,O=C(CNC(=O)c1cccs1)c1ccc(Br)cc1,20.6
7,CC(=O)c1c(COC(=O)c2ccccc2Cl)nc2ccccc2[n+]1[O-],6.61
8,O=C(Nc1cccc(Cl)c1Cl)C1CCN(c2ncccn2)CC1,19.4
9,COc1ccc(NC(=O)C2CCCN(S(=O)(=O)c3cccs3)C2)cc1OC (stereo not drawn),14.3
10,O=C(Nc1cccc2cccnc12)c1cccc(Cl)c1,14.7
11,C[C@H]1CC[C@@]2(C)[C@@H](CC[C@@H]3[C@@H]2CC[C@]2(C)[C@@H](O)CC[C@@H]32)C1,10.2
12,N#C/C(C(=O)N1CCOCC1)=c1/s/c(=C\c2ccccn2)c(=O)n1-c1ccccc1,12.8
13,CCn1cc(/C=N\NC(=O)Cc2ccc(Cl)cc2)cn1,-5.5
14,CC(C)CC(=O)Nc1ccnn1C1CCN(C(=O)c2ccccc2F)CC1,16.7
15,COc1ccc(-c2nc(CSCC(=O)NCc3ccc4c(c3)OCO4)c(C)o2)cc1,6.6
16,COc1ccc(CCNC(=O)COC(=O)/C=C/c2cc(OC)c(OC)c(OC)c2)cc1OC,13.5
17,COc1ccc(N2CCN(C(=O)CSc3nnc(-c4ccc5[nH]c(C)c(C)c5c4)o3)CC2)cc1,13
18,CCOc1ccc(S(=O)(=O)N2CCCCC2)cc1NC(=O)C1CCC1,5.47
19,O=c1c2ccccc2c(-c2ccccc2)nn1-c1ccc(Cl)c(Cl)c1,18
20,Cc1nn(C)c(C)c1S(=O)(=O)N(CC(=O)NCCN1CCOCC1)c1ccc(C(C)C)cc1,2.09
21,COc1ccccc1CNC(=O)C1(C)Oc2cccnc2NC1=O (stereo not drawn),6.96
22,COc1ccc(C2=NN(CCC(=O)NC3CCCCCC3)C(=O)CC2)cc1,14.3

row,Structure (SMILES),"hERG current change (%, negative = inhibition) at 1uM [%]"
1,Cl.NC(CC(=O)OC1CCCCC1)C(=O)OC1CCCCC1 (stereo not drawn),-5.16
2,COc1ccc(C(c2nnnn2C2CCCC2)N2CCC(C)CC2)c(OC)c1 (stereo not drawn),3.37
3,CCOc1ccc(S(=O)(=O)NCc2ccc(OC)cc2)c2cccnc12,-3.22
4,COc1ccccc1CNC(=O)C1CCC(CNc2c(N3CCCCC3)c(=O)c2=O)CC1 (stereo not drawn),5.75
5,Cc1cc(C)c(S(=O)(=O)NCC2CCC(C(=O)NCc3ccc4c(c3)OCO4)CC2)c(C)c1 (stereo not drawn),4.26
6,O=C(/C=C/c1ccc(Cl)cc1)NC(=S)N1C[C@H]2C[C@H](C1)c1cccc(=O)n1C2,-25.5
7,COc1ccc(CN2CC(=O)N(c3ccccc3C)C2=S)cc1OC,23.9
8,COc1ccc(NC(=O)CSc2nnc(N)s2)c([N+](=O)[O-])c1,10.5
9,CCn1c(SCC(=O)NC(=O)Nc2ccc3c(c2)OCCO3)nnc1-c1cccs1,4.07
10,Cc1cccc(NCC(=O)N/N=C\c2ccccn2)c1,13.6
11,Cc1ccc(S(=O)(=O)N(C)C(=O)NC(=O)NS(=O)(=O)c2ccccc2)cc1,6.01
12,CC(=O)Nc1ccc(C(=O)CSc2nccc(=O)[nH]2)cc1,20.4
13,COc1ccc(S(=O)(=O)Nc2ccc(N(C)C(C)=O)cc2)cc1,17.4
14,CCN(CC)CCNC(=O)C12CC3CC(C)(CC(C)(C3)C1)C2.Cl,3.57
15,O=C(C1COc2ccccc2O1)N1CCN(c2ccccn2)CC1 (stereo not drawn),1.96
16,CC1=C(C)C(C)=C(C#N)C(=C(C#N)C#N)N1,13.1
17,COc1cccc(/C=N/NC(=O)c2c(C)nc3ccc(Br)cn23)c1O,12.5
18,CSCC(=O)N1CCCC(CO)(Cc2ccccc2C)C1 (stereo not drawn),7.65
19,S=C1N(c2ccccc2)C(c2cccc3ccccc23)N2CCCN12 (stereo not drawn),0.859
20,Cc1cc(OCC(=O)Nc2ccccc2N2CCCC2)ccc1C(C)C,9.93
21,CCCNC(=O)c1ccc(CN2CCc3ccccc3C2)cc1,-5.55
22,COc1cccc(CNn2cnnc2)c1OCc1ccccc1F,2.06

row,Structure (SMILES),"hERG current change (%, negative = inhibition) at 1uM [%]"
1,CC(=O)Nc1cccc(-c2cnc3ccccc3n2)c1,1.37
2,C/C=C\C=C/C(=O)Nc1cccc(C2=NOC3(C2)C[C@H](C(N)=O)N(C(=O)CC)C3)c1 (stereo partly drawn),-8.7
3,CC(C)CC(OC(=O)c1nsc(Cl)c1Cl)C(=O)NCC1CCCO1 (stereo not drawn),7.21
4,COc1cccc(CNC(=O)[C@@H](C)N2C(=O)N3CCc4c([nH]c5ccc(OC)cc45)C3(C)C2=O)c1 (stereo partly drawn),10.8
5,COCC(C)n1c(C)cc(C(=O)COC(=O)c2n[nH]c3ccccc23)c1C (stereo not drawn),10
6,Cc1ccc2ncccc2c1NS(=O)(=O)c1ccccc1,10.3
7,O=C(NCc1ccc(N2CCCC2=O)cc1)C1CCC(=O)N(Cc2ccccc2F)C1 (stereo not drawn),1.12
8,Cc1ccc(NC(=O)c2ccc3c(c2)S(=O)(=O)c2ccccc2C3=O)cc1S(=O)(=O)N1CCOCC1,9.15
9,Cc1[nH]n(-c2nc(-c3cccc([N+](=O)[O-])c3)cs2)c(=O)c1C,14.7
10,O=C(Nc1ccc(Cl)c(Cl)c1)Nc1ccc([N+](=O)[O-])cn1,8.84
11,Cc1cccc2c1CC(C)(C)NC2=C(C#N)C#N,28.7
12,Cc1ccc(OCCC(=O)OCc2csc(CC(=O)Nc3ccccc3C)n2)cc1,7.44
13,Cc1ccc(S(=O)(=O)N2CCC(C(=O)OCC(=O)N3CCCC(C)C3)CC2)cc1C (stereo not drawn),-1.14
14,COc1ccc(C(CCN)Cc2ccccc2)cc1 (stereo not drawn),14.2
15,CCc1ccc(NC(=O)COc2coc(CN3CCN(c4ccccc4)CC3)cc2=O)cc1,14.4
16,COc1cccc(N2CCN(C(=O)c3cc4c(s3)-c3ccccc3OC4)CC2)c1,-13.3
17,O=C(NC1=NCCS1)c1cc(-c2ccc(F)cc2)nc2ccccc12,8.29
18,Cc1nn2c(Nc3ccc(F)cc3)c3c(nc2c1-c1ccccc1)CCC3,13.8
19,Cc1ccccc1NC(=S)NC(=O)c1cncc(Br)c1,2.94
20,CC(/C=C/c1ccccc1)=N\NC(=O)c1ccc(Br)cc1,7.71
21,c1ccn2cc(CSc3nnc4ccccn34)nc2c1,13.6

# — article PMC4336329 (PLoS ONE, 2015)
